Laboratory results as given in paper PMC4336329 (PLoS ONE, 2015).
The whole screen tested about 310,000 compounds, of which about 14,000 (4.5%) showed an effect of 50% or more. The effect is printed as a negative number. The list shows a part of the results.

molecular target: human ether-à-go-go-related gene (hERG) potassium channel (human, UniProt Q12809); experiment: primary screen, population patch clamp on CHO cells stably expressing hERG
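Further: peak tail current of the secondary pulse compared with the same well before compound.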

Chain of human ether-à-go-go-related gene (hERG) potassium channel (Q12809 whole entry, looked up): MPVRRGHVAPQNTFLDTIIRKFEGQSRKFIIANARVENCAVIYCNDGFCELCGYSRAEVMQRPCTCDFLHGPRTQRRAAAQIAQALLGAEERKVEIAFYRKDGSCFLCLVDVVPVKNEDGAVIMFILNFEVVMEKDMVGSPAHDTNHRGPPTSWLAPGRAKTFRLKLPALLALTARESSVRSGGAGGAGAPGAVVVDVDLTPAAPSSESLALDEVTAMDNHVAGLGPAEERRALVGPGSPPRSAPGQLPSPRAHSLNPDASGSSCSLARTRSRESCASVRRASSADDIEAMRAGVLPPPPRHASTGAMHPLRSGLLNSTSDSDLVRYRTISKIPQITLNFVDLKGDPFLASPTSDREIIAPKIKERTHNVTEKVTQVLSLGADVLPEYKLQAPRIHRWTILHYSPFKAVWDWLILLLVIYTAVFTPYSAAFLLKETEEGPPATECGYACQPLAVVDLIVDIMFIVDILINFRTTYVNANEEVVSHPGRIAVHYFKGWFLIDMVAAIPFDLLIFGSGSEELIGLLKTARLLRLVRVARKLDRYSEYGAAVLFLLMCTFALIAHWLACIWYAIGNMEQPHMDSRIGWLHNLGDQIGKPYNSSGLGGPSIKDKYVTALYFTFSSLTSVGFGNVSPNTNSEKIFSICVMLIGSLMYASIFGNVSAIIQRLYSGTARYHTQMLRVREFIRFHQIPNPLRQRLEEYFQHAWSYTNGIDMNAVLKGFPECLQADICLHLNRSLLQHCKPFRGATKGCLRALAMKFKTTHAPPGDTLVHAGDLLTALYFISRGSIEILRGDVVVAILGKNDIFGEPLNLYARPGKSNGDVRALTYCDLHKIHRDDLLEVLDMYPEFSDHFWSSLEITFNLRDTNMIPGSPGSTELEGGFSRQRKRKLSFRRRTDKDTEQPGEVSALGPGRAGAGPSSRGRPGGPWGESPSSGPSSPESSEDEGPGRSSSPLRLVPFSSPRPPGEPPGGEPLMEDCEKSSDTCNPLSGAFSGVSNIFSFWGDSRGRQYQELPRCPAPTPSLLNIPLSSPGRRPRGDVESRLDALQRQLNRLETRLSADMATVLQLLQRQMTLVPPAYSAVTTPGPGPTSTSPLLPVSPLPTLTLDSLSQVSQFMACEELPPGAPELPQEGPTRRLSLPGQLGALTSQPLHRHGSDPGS

Row | SMILES | hERG current change (%, negative = inhibition) at 10uM [%]
1 | Cc1cccc(OCC(=O)N(Cc2ccco2)C2CCS(=O)(=O)C2)c1C (stereo not drawn) | -32.8
2 | Cc1ccccc1OC(C)C(=O)Nc1cccnc1 (stereo not drawn) | 10.4
3 | O=C1NC(=O)C(c2ccc(Cl)cc2)N1 (stereo not drawn) | 11.7
4 | Cc1cccc(NC(=O)CSc2nc3c([nH]c4ccccc43)c(=O)n2C)c1 | 5.54
5 | CN(CCc1ccccn1)C(=S)Nc1ccc(Cl)cc1Cl | -11.2
6 | CCOc1nc2cnccc2n(CC(=O)Nc2ccccc2C(=O)OC)c1=O | -1.11
7 | Cc1nc(SCC(=O)Nc2cccc(C(=O)O)c2)n[nH]1 | 24.9
8 | COc1ccc(-c2nnc3n2N=C(C)CS3)cc1OC | -9.22
9 | COc1ccc(-n2nc(C(=O)NCC(=O)N3CCN(c4ccccc4OC)CC3)c3ccccc3c2=O)cc1OC | -34.5
10 | Cc1nn(CCc2n[nH]c(=S)n2-c2ccc(F)c(Cl)c2)c(C)c1[N+](=O)[O-] | 15.4
11 | COc1ccc(NC(=O)c2noc3c2CCC3)cc1 | -4.67
12 | CN(CC(=O)OCC(=O)c1c(N)n(C)c(=O)n(C)c1=O)S(=O)(=O)c1ccc(Cl)cc1 | -69.3
13 | CCCCCc1nc2c(C#N)c(-c3ccc(Cl)cc3)ccn2n1 | 12
14 | CCNC(=O)CC1C(=O)N(c2ccc(F)cc2)C(=O)N1Cc1cccs1 (stereo not drawn) | -29.9
15 | Cc1c(C)c2cc(Cl)c(OC(C)C(=O)NCCN3CCOCC3)cc2oc1=O (stereo not drawn) | 2.2
16 | O=C(Nc1ccc(NC(=O)c2ccco2)cc1)c1cnccn1 | 21.2
17 | CCOc1ccccc1CNS(=O)(=O)c1ccc2[nH]c(=O)sc2c1 | -15.6
18 | CC(C)(C)NC(=S)N1CCn2cccc2C1c1cccnc1 (stereo not drawn) | 5.4
19 | CCN(CC)c1ccc2c(-c3ccc(S(=O)(=O)[O-])cc3S(=O)(=O)[O-])c3ccc(=[N+](CC)CC)cc-3oc2c1.[Na+] | 11
20 | O=C(Cn1[nH]c(=O)c2ccccc2c1=O)Nc1cccc(S(=O)(=O)N2CCCCCC2)c1 | -13.2
21 | C/C(=N\NC(=O)c1ccc(N(C)C)cc1)c1cccnc1 | -6.75
22 | O=C(CN1CCCCC1)N=Nc1c(O)[nH]c2ccccc12 | 4.68
23 | Cc1noc(C)c1COC(=O)c1ccc(S(=O)(=O)N2CCCCC2)cc1 | -21.3

Row | SMILES | hERG current change (%, negative = inhibition) at 10uM [%]
24 | Oc1ccc(Cl)cc1-c1cc(-c2ccccc2)n[nH]1 | 18.2
25 | O=C(CC(Cc1ccccc1)c1ccco1)NC1CCCCC1 (stereo not drawn) | -3.48
26 | CNC(=O)c1c(NC(=O)c2ccco2)sc2c1CCC2 | 16.8
27 | COCC(=O)Nc1ccc(Nc2ccccc2)cc1 | -16.4
28 | CCCCc1nnc(SCC(=O)NC2CCCCC2)n1C | 15
29 | COC(=O)C(NC(=O)c1c(C)nn(C)c1Cl)c1ccccc1 (stereo not drawn) | 6.88
30 | O=C(Nc1cccc(-c2ccc(F)cc2)c1)C1CCCN(C(=O)c2cscn2)C1 (stereo not drawn) | -39.1
31 | Cc1ccc(N)c([N+](=O)[O-])c1 | 16.4
32 | COC(=O)CSc1nnc(C)c(=O)[nH]1 | 2
33 | Cc1cc(NC(=O)c2ccc3c(c2)OCCO3)ccc1NC(=O)c1ccco1 | 8.5
34 | CCOC(=O)/C(=N\Nc1ccccc1)S(=O)(=O)c1ccccc1 | -11.3
35 | COc1cc(/C=N/NC(=O)[C@H](Cc2c[nH]c3ccccc23)NC(=O)OCC(C)C)cc([N+](=O)[O-])c1O | 10.3
36 | COc1ccc(C(=O)N/N=C(\c2ccccc2)c2ccccn2)cc1 | -31.9
37 | c1ccc(C2Nc3cccc4cccc(c34)N2)cc1 | 14
38 | CC(C)(C)c1ccc(C(=O)NCCNC(=O)c2ccco2)cc1 | 0.435
39 | CCOc1ccc(C(=O)Nc2ccc(N3CCN(C)CC3)cc2)cc1 | -50.2
40 | Br.CC(=O)NNc1nc(-c2ccccc2)cs1 | 14.4
41 | COc1ccc(-c2n[nH]c(C)c2-c2ccc(OC)c(OC)c2)c(O)c1 | -4.33
42 | Cc1ccc(-n2nc(C)c3c(C)c(CCC(=O)NCC4CCCO4)c(=O)n(C)c32)cc1 (stereo not drawn) | 14.4
43 | CCCCCCC(=O)N(O)C1CC(=O)N(c2ccccc2)C1=O (stereo not drawn) | 21.9
44 | COCCN(C(=O)CC1CCCCC1)c1c(N)n(CC(C)C)c(=O)[nH]c1=O | 7.17
45 | O=c1c2ccccc2cnn1Cc1n[nH]c(=S)n1-c1ccc(Cl)cc1Cl | 13.7
